{"source": "the antibiotic and cytotoxicity screens of Wong et al. (2023)", "note": "The list shows a part of the results."}
{"test_system": "HepG2", "assay": "cytotoxicity call (relative viability < 0.9)", "conditions": "10 µM"}
{"smiles": "COC(=O)c1c2oc(c1C(=O)OC)C(=O)N[C@@H](Cc1ccccc1)Cn1cc(nn1)[C@@H](Cc1ccccc1)NC(=O)N[C@H](COC(=O)NCCCCCC(=O)NO)CC2", "cytotoxicity call": "inactive"}
{"smiles": "O=C(C=Cc1ccccc1)c1ccc(O)cc1O", "cytotoxicity call": "inactive"}
{"smiles": "C[N+](C)(C)CCCC[C@@H]1NC(=O)[C@@H]2C[C@H](C(=O)NCCCCCCNC(=O)CS)[C@H](c3cccc(OCCO)c3)N2C1=O", "cytotoxicity call": "inactive"}
{"smiles": "CN1CCN(CCCN2c3ccccc3Sc3ccc(C(F)(F)F)cc32)CC1.Cl.Cl", "cytotoxicity call": "active"}
{"smiles": "CO[C@@H]1CN(C)C(=O)c2cc(NC(=O)c3ccc(F)cc3)ccc2OC[C@@H](C)N(C(=O)CN(C)C)C[C@H]1C", "cytotoxicity call": "inactive"}
{"smiles": "C[C@H]1CN([C@@H](C)CO)C(=O)c2cc(-c3cccc(C#N)c3)cnc2O[C@@H]1CN(C)C(=O)C1CCOCC1", "cytotoxicity call": "inactive"}
{"smiles": "Cc1noc(C)c1S(=O)(=O)Nc1ccc2c(c1)C(=O)N([C@@H](C)CO)C[C@@H](C)[C@@H](CN(C)CC1CCCCC1)OCCCC[C@H](C)O2", "cytotoxicity call": "inactive"}
{"smiles": "C[C@@H]1CN([C@@H](C)CO)C(=O)c2cccc(NS(C)(=O)=O)c2O[C@@H]1CN(C)Cc1ccc2c(c1)OCO2", "cytotoxicity call": "inactive"}
{"smiles": "COc1ccc([C@H]2CC([C@@H]3C(=O)N[C@H]4CC[C@H](Br)C[C@@H]4[C@H]3c3ccccc3)=NN2C(=O)c2ccccc2)cc1", "cytotoxicity call": "inactive"}
{"smiles": "C[C@@H]1CN([C@H](C)CO)C(=O)Cc2cc(NC(=O)Nc3cccc4ccccc34)ccc2O[C@H]1CN(C)Cc1ccc(C(=O)Nc2ccccc2N)cc1", "cytotoxicity call": "inactive"}
{"smiles": "C[C@H](CO)N1C[C@H](C)[C@@H](CN(C)C(=O)C2CCCCC2)OCCCC[C@H](C)Oc2ccc(NC(=O)Cc3ccccc3)cc2C1=O", "cytotoxicity call": "inactive"}
{"smiles": "C[C@H](CO)N1C[C@H](C)[C@H](CN(C)S(=O)(=O)c2cn(C)cn2)Oc2ccc(NC(=O)CCN3CCOCC3)cc2C1=O", "cytotoxicity call": "inactive"}
{"smiles": "O=C(Cc1ccncc1)NCC[C@@H]1CC[C@H](NC(=O)C2CCOCC2)[C@@H](CO)O1", "cytotoxicity call": "inactive"}
